From PMC4336329 (PLoS ONE, 2015)
Among all 310,000 compounds or so, about 2,200 (0.71%) showed an effect of 50% or more. Effects have a minus sign here. Some of the results follow.

The compounds below were run against human ether-à-go-go-related gene (hERG) potassium channel (human, UniProt Q12809) (assay: primary screen, population patch clamp on CHO cells stably expressing hERG).
Chain of human ether-à-go-go-related gene (hERG) potassium channel (Q12809 whole entry, looked up): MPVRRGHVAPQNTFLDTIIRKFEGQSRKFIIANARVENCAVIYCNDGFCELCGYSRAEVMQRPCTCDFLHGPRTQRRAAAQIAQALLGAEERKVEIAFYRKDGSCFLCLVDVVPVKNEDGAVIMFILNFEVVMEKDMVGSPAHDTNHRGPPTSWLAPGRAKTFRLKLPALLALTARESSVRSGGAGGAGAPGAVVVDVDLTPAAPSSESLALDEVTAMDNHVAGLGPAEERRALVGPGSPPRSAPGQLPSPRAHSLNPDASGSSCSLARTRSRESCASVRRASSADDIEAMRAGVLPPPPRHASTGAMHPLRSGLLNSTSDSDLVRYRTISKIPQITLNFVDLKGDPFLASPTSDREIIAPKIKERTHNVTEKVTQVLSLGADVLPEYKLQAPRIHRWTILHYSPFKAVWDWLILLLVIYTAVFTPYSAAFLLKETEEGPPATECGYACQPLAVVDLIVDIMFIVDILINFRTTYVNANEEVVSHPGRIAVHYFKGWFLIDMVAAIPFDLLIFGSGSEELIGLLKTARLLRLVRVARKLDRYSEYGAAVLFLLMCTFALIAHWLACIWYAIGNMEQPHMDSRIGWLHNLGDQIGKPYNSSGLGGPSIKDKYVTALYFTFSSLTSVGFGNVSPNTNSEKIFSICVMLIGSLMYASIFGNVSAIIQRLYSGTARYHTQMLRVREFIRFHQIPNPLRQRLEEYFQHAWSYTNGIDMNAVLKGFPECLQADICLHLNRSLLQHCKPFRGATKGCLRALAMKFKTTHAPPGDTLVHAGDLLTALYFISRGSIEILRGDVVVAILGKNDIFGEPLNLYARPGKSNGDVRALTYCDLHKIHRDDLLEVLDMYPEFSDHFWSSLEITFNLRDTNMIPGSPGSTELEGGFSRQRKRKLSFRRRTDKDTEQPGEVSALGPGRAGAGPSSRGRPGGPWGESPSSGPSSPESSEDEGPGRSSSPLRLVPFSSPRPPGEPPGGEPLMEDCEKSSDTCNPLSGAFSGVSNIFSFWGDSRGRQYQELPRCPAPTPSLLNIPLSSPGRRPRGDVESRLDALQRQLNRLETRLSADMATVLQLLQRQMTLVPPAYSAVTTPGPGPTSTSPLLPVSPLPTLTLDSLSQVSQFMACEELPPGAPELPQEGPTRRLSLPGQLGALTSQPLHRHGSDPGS
With `COc1ccccc1C(=O)O/N=C(\N)c1ccccc1Cl` the “hERG current change (%, negative = inhibition) at 1uM” value was -3.81%.
For `CCc1ccc(-c2nc(CS(=O)CC(=O)NC3CC3)c(C)o2)cc1` (stereo not shown), the “hERG current change (%, negative = inhibition) at 1uM” value was 12%.
`CCN1CCc2c(sc(NC(=S)NC(=O)c3ccccc3)c2C#N)C1` was tested, and the “hERG current change (%, negative = inhibition) at 1uM” value was 2.98%.
For `Cn1nc(C(F)(F)F)c2cc(C(=O)O)sc21`, the “hERG current change (%, negative = inhibition) at 1uM” value was 14.1%.
For `CN(C)c1ccc(NC(=O)Cn2ncn3c(cc4ccccc43)c2=O)cc1`, the “hERG current change (%, negative = inhibition) at 1uM” value was 11.9%.
For `Cc1ccccc1/C=N\NC(=O)c1ccccc1-n1cccc1`, the “hERG current change (%, negative = inhibition) at 1uM” value was 17.1%.
For `COc1ccccc1CNC(=O)C1CC2Cn3c(nc4cc(C)c(C)cc43)C2N1C` (stereo not shown), the “hERG current change (%, negative = inhibition) at 1uM” value was 8.24%.
With `Cl.Fc1ccccc1Nc1nc(Cl)nc(Cl)n1` the “hERG current change (%, negative = inhibition) at 1uM” value was 10.9%.
In the case of `O=C(NCC(c1ccco1)N1CCN(c2ccccc2)CC1)C(=O)NC1CCCCC1` (stereo not shown), the “hERG current change (%, negative = inhibition) at 1uM” value is reported as 6.05%.
In the case of `CCSc1nc2sc3c(c2c(=O)[nH]1)CC(C)(C)OC3`, the “hERG current change (%, negative = inhibition) at 1uM” value is reported as 16.7%.
`C=CCNc1cnn(-c2ccc(C)cc2)c(=O)c1Cl` was tested, and the “hERG current change (%, negative = inhibition) at 1uM” value was -1.78%.
`COc1ccc(C(=O)NCC2OCCc3ccccc32)cc1` (stereo not shown) was tested, and the “hERG current change (%, negative = inhibition) at 1uM” value was 3.13%.
For `O=C1CC(C(=O)N2CCN(c3ccccc3O)CC2)CN1Cc1ccccc1` (stereo not shown), the “hERG current change (%, negative = inhibition) at 1uM” value was -9.5%.
`CCC(=O)Oc1ccc(-c2nc(-c3cccnc3)no2)cc1` was tested, and the “hERG current change (%, negative = inhibition) at 1uM” value was 19.9%.
With `Cn1c(Cc2cccs2)nnc1SCC(=O)N1CCCc2ccccc21` the “hERG current change (%, negative = inhibition) at 1uM” value was 9.19%.
With `Cc1c(NC(=O)C(C)OC(=O)c2ccc([N+](=O)[O-])s2)c(=O)n(-c2ccccc2)n1C` (stereo not shown) the “hERG current change (%, negative = inhibition) at 1uM” value was -19.3%.
With `Cc1ccc(S(=O)(=O)n2nc(-c3ccco3)nc2N)cc1` the “hERG current change (%, negative = inhibition) at 1uM” value was -4.62%.
In the case of `COc1ccc(C)c2sc(NC(=O)CCS(=O)(=O)c3ccccc3)nc12`, the “hERG current change (%, negative = inhibition) at 1uM” value is reported as 7.72%.
In the case of `CNC(=S)NC1(C)CCS(=O)(=O)C1` (stereo not shown), the “hERG current change (%, negative = inhibition) at 1uM” value is reported as 8.8%.
In the case of `CSc1nc2ccc(S(=O)(=O)N(C)C)cc2s1`, the “hERG current change (%, negative = inhibition) at 1uM” value is reported as 5.4%.
In the case of `O=C(CCc1nc2ccccc2c(=O)[nH]1)OCc1cccc(C(F)(F)F)c1`, the “hERG current change (%, negative = inhibition) at 1uM” value is reported as 9.35%.
`CN1CCN(CC(O)COc2ccc(Cl)cc2)CC1.Cl` (stereo not shown) was tested, and the “hERG current change (%, negative = inhibition) at 1uM” value was -5.93%.
For `Cn1cc(CN2CCC(C(O)c3cccs3)CC2)c(-c2ccccc2F)n1` (stereo not shown), the “hERG current change (%, negative = inhibition) at 1uM” value was 6.56%.
`NC(=O)C1CCN(C(=O)NC(=O)c2ccccc2)CC1` was tested, and the “hERG current change (%, negative = inhibition) at 1uM” value was -5.92%.
For `CC(C)(C)c1ccc(C(=O)NC(=S)Nc2ccc(N3CCOCC3)cc2)cc1`, the “hERG current change (%, negative = inhibition) at 1uM” value was 9.39%.
For `Cc1c(/C=N/NC(=O)c2ccc(O)cc2)c2ccccn2c1C(=O)c1ccc(F)cc1`, the “hERG current change (%, negative = inhibition) at 1uM” value was 7.27%.
In the case of `COc1ccccc1N1CCN(CCCNC(=O)Nc2ccccc2)CC1`, the “hERG current change (%, negative = inhibition) at 1uM” value is reported as -28.8%.
In the case of `O=C(CCCN1C(=O)/C(=C\c2ccccc2)SC1=S)Nc1cccc(C(=O)O)c1`, the “hERG current change (%, negative = inhibition) at 1uM” value is reported as 9.83%.
In the case of `CN1CCN(CCCN(Cc2cccs2)C(=S)Nc2ccc(Cl)cc2)CC1`, the “hERG current change (%, negative = inhibition) at 1uM” value is reported as -31.9%.
`COc1ccc([N+](=O)[O-])cc1NC(=O)CC(C)c1ccccc1` (stereo not shown) was tested, and the “hERG current change (%, negative = inhibition) at 1uM” value was 5.66%.
With `COc1cccc(CN(C)C(=O)c2ccc(S(=O)(=O)N3CCCC3)cc2)c1OC` the “hERG current change (%, negative = inhibition) at 1uM” value was 0.226%.
With `CCOC(=O)CN1C(=O)N[C@@H](CCc2ccccc2)C(C(=O)OC)=C1C` the “hERG current change (%, negative = inhibition) at 1uM” value was 8.17%.
With `CCOc1ccc(NC(=O)NNC(=O)c2ccc(CC)s2)cc1` the “hERG current change (%, negative = inhibition) at 1uM” value was 8.15%.
`Cc1cc(C)cc(N(C(C)C(=O)NCc2ccc3c(c2)OCO3)S(C)(=O)=O)c1` (stereo not shown) was tested, and the “hERG current change (%, negative = inhibition) at 1uM” value was 15.7%.
In the case of `CC1(C)C2([N+](=O)[O-])CN3CC1([N+](=O)[O-])CN(C2)C3c1ccccn1` (stereo not shown), the “hERG current change (%, negative = inhibition) at 1uM” value is reported as 15.1%.
For `Cc1ccc2nc(-c3ccccn3)cc(C(=O)Nc3ccc(S(=O)(=O)N4CCOCC4)cc3)c2c1`, the “hERG current change (%, negative = inhibition) at 1uM” value was 15.8%.
With `O=C(NC1=NCCS1)c1cccc2ccccc12` the “hERG current change (%, negative = inhibition) at 1uM” value was 8.28%.
In the case of `COC(=O)CCCC(=O)Nc1c(F)c(F)c(F)c(F)c1F`, the “hERG current change (%, negative = inhibition) at 1uM” value is reported as 7.53%.
With `Cc1ccc(S(=O)(=O)N2CCN(C(=O)C(F)(F)F)C2c2ccc(N(C)C)cc2)cc1` (stereo not shown) the “hERG current change (%, negative = inhibition) at 1uM” value was 15.1%.
`CN1C[C@@H]2C(c3ccc(Cl)nc3)C3(c4cccnc4)CC2(C3)[C@H]1c1ccccc1` (stereo partly shown) was tested, and the “hERG current change (%, negative = inhibition) at 1uM” value was -13%.
In the case of `CS(=O)(=O)c1ccc(NC(=O)C2CC(=O)N(c3ccc4c(c3)OCCO4)C2)cc1` (stereo not shown), the “hERG current change (%, negative = inhibition) at 1uM” value is reported as 15.4%.
For `Cc1cc(NC(=O)CCC(=O)N(c2cccnc2)C(C(=O)NC2CCCC2)c2ccccc2)no1` (stereo not shown), the “hERG current change (%, negative = inhibition) at 1uM” value was 15.7%.
In the case of `O=C(CC(=O)c1ccccc1O)c1ccc(F)cc1`, the “hERG current change (%, negative = inhibition) at 1uM” value is reported as 7.4%.
In the case of `O=[N+]([O-])c1ccc(NNC(=S)Nc2ccc(F)cc2)cc1`, the “hERG current change (%, negative = inhibition) at 1uM” value is reported as 5.09%.
`COc1ccc(C(CNC(=O)c2ccc(-n3cnnn3)cc2)N2CCOCC2)cc1` (stereo not shown) was tested, and the “hERG current change (%, negative = inhibition) at 1uM” value was -7.62%.
In the case of `CC(CC(=O)O)CC(=O)Nc1cc([N+](=O)[O-])ccc1O` (stereo not shown), the “hERG current change (%, negative = inhibition) at 1uM” value is reported as 9.09%.
With `CC(=O)NCc1ccc2[nH]c(C)cc2c1` the “hERG current change (%, negative = inhibition) at 1uM” value was 21.4%.
In the case of `CC(C)C(C(=O)NCc1ccccc1)N(CC1CCCO1)C(=O)CNS(=O)(=O)c1ccccc1` (stereo not shown), the “hERG current change (%, negative = inhibition) at 1uM” value is reported as 12.2%.
With `O=C(NC(=S)Nc1ccc(Cl)cc1)c1cncc(Br)c1` the “hERG current change (%, negative = inhibition) at 1uM” value was 1.69%.
For `Cc1ccc(S(=O)(=O)NCC(=O)NCC(=O)OCc2c(F)cccc2Cl)cc1`, the “hERG current change (%, negative = inhibition) at 1uM” value was 5.06%.
With `C#CCOCCOCCOCCNc1nc(N2CCN(C(=O)[C@H](Cc3ccc(O)cc3)n3cc([C@@H](N)C(C)CC)nn3)CC2)nc(N2CCN(C(=O)[C@H](CCCCN)n3cc([C@@H](N)CO)nn3)CC2)n1.Cl` (stereo partly shown) the “hERG current change (%, negative = inhibition) at 1uM” value was 12.4%.
In the case of `COCCN(Cc1cc2cc3c(cc2n2nnnc12)OCO3)C(=O)c1ccccc1F`, the “hERG current change (%, negative = inhibition) at 1uM” value is reported as -4.1%.
In the case of `CCN(CC)CCCNCC(=O)Nc1ccc2c(c1)CCC2`, the “hERG current change (%, negative = inhibition) at 1uM” value is reported as 7.47%.
`CCOc1ccc(Nc2nc(NCC(=O)O)nc(N)c2[N+](=O)[O-])cc1` was tested, and the “hERG current change (%, negative = inhibition) at 1uM” value was 15.3%.
With `CSc1ccc(Cl)c(C(=O)OCC(=O)N2CCNC2=O)c1` the “hERG current change (%, negative = inhibition) at 1uM” value was 0.583%.
